Reference: the supplement of paper PMC10126150
Sequences with one replicate were seen in a single cluster, so their values are uncertain.

Tested on: ATP
Assay: switch fluorescence ratio, 500 uM ATP over buffer (Cy3 cluster intensity, sum of 5 cycles each) (fold (ratio)); higher = stronger signal-on switching upon ATP binding; sequences stand for … in TCGTCGGCAGCGTCAGATGTGTATAAGAGACAGTTTTTTTTTTTTTTTTTTTTTTTTT…TC
Details: aptamer strand: ATP DNA aptamer (quencher-CACCTGGGGGAGTATTGCGGAGGAAGG + anchor), 100 nM annealed; ATP concentration: 500 uM; one replicate
Method in brief: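 Clusters carrying Cy3-labelled switching strands on a modified Illumina MiSeq flow-cell were annealed to 100 nM quencher-labelled ATP aptamer and imaged in selection buffer. They were imaged again after 15 min with 500 uM ATP at 22 °C, over five buffer/ATP cycles with NaOH stripping and re-annealing in between. For each cluster, the fluorescence ratio is the summed Cy3 intensity of the target cycles divided by that of the buffer cycles, averaged per switch-domain sequence. Clusters outside 100-1000 RFU were left out.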
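Also: ATP exposure 15 min at 22 °C before imaging.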

| Sequence | switch fluorescence ratio |
| --- | --- |
| TCGGGGATA | 1.02 |
| TATGGGAAAA | 0.937 |
| TAATACCATG | 0.994 |
| CTGCCCGGTC | 1.02 |
| AACTTTTAT | 1.02 |
| AAAAAAGACA | 1.02 |
| TATGTGGATC | 0.997 |
| ACCGTCGCGT | 1.08 |
| TTCTGCCTGC | 1.03 |
| AGTGTGGAGC | 0.984 |
| TCTCGGCAAG | 3.33 |
| TCGAGAAGTT | 1.01 |
| GCCGCCGAGG | 0.978 |
| TGCGACGCTC | 2.46 |
| GTTGGCCTTC | 1 |
| ACTGATACTA | 1.08 |
| ATTGCACGG | 1.04 |
| GAGCTGGG | 1.07 |
| AAGGCCCCGG | 1.02 |
| TATAATGTCG | 1.09 |
| CCAATATTAC | 1.94 |
| TGTGAGCTTG | 1.01 |
| AACCACAGGT | 1.05 |
| TTTGTCATCT | 1.03 |
| CAGACCTTTG | 1.01 |

| Sequence | switch fluorescence ratio |
| --- | --- |
| GATCCAGAAC | 1.02 |
| CGAATGCCTT | 1.01 |
| GGATGCGTAA | 1.01 |
| TTGTTGTCCT | 0.965 |
| CCACAGTATT | 1.17 |
| AAGAATGTCA | 1.01 |
| TGTCGGATTC | 1.01 |
| AAGAGGTTCG | 0.985 |
| CTGGAGGTAA | 1.16 |
| GCGGGAGCTC | 0.973 |
| GAGGGTGGTG | 0.971 |
| AGGAATTGTT | 0.937 |
| TTGGCAGT | 1.02 |
| AGAGATCGTT | 1.06 |
| ATTTTCCGCC | 1.28 |
| TAGCCTAGC | 1.01 |
| GTTCAGTTT | 0.977 |
| GCTTGCGCT | 1 |
| TTTTTGATTC | 1.02 |
| GCAGAGGAAG | 1.05 |
| GCTATTCGTT | 0.943 |
| CGTACCGTAT | 1 |
| TGGGTTACAC | 1.05 |
| CAGGGATCAG | 1.02 |
| AGACGGTAAC | 1.14 |

| Sequence | switch fluorescence ratio |
| --- | --- |
| ACACAGTCT | 0.987 |
| GTTTACTCTA | 1.03 |
| ATTTCACCGG | 1.02 |
| ACTTATGTTT | 1.02 |
| ACTACCAGCG | 1.76 |
| ACTAGATGTC | 0.983 |
| CATATTTTAT | 0.995 |
| CTATAATGAC | 1.05 |
| TATTGAAGCG | 0.984 |
| AAACTATAAA | 0.989 |
| ATTGAACGCC | 1.06 |
| AGTTTCATC | 0.963 |
| TTTTCTAGTG | 1.05 |
| TGCCACTGTG | 1.06 |
| TTACCGCCGC | 1.1 |
| AACCACGCTG | 0.985 |
| TGGCTAAATT | 1.01 |
| GGCATTGAAC | 0.993 |
| AAGGTTTAC | 0.991 |
| AACAAAATCC | 1.16 |
| AAATCAAGG | 0.971 |
| CAACATTGG | 1 |
| GGGTTAGACC | 1.03 |
| CTCATATGCG | 1.03 |
| TCGAGGTTCA | 1.04 |

| Sequence | switch fluorescence ratio |
| --- | --- |
| TAGACTAACT | 1.12 |
| TGGTTGAAGT | 0.968 |
| CCCTTGAGCG | 1.05 |
| GTTCCCTGAT | 1.17 |
| AGGTCACAGC | 1.03 |
| CAATAAACAG | 1.01 |
| CGCCTAACCA | 0.992 |
| ATACGCCTGT | 1.25 |
| TGCGATTTGC | 1.04 |
| AGGCCTGAGT | 1.04 |
| GGTGAATCG | 1.01 |
| CAAGGAGTAT | 0.962 |
| CACACCCAGA | 1.23 |
| CATCAGGGTA | 0.987 |
| GGAGCCTAAG | 0.969 |
| CAGTTTTTG | 0.967 |
| CCATGAAGGA | 1.06 |
| GCGCCGGAAG | 1.12 |
| GTTCAAACAC | 0.995 |
| GCTTGCGTAG | 1.05 |
| AGGCAGATAT | 0.982 |
| GATACATTTA | 1.02 |
| CCTAAGTGAT | 1.4 |
| CGGATGTAAA | 0.991 |
| TCAGTAAAAG | 1.03 |
